According to patent publication US11851681B2, “Cell preparation method” (KYOTO PREFECTURAL PUBLIC UNIVERSITY CORPORATION, priority 2015, dated 2023):

Legend:
[1] = test system: human dermal fibroblasts; HDFs; conditions: calcification induction medium added with ALK5 inhibitor II
Procedure: After washing 3 times with PBS(−), Blocking One was added, and the mixture was incubated at room temperature for 60 min.

[2] = test system: human dermal fibroblasts; HDFs; assay: Real-time RT-PCR of Sox9 and Aggrican in cartilage induction medium, Example 8; assay type: cell-based; conditions: ALK5 inhibitor II 2 μM, Cyclic Pifithrin-α 5 μM, day 18, FIG. 8
Procedure: The concentrations of the compounds are as follows: • Cyclic Pifithrin-α: 5 μM • ALK5 inhibitor II: 2 μM.

[3] = test system: human dermal fibroblasts; HDFs; assay: BODIPY staining and fluorescence intensity, Example 15; assay type: cell-based; conditions: compound 2 μM in addition to T3 1 nM and Rosiglitazone 1 μM; day 14; FIG. 15A, 15B
Procedure: The concentrations of the additives are as follows: • T3: 1 nM • Rosiglitazone: 1 μM • D4476: 2 μM • SB431541: 2 μM • ALK5 inhibitor II: 2 μM.
The cells were fixed with 4% para-formaldehyde, washed with PBS(−), reacted for 5 min with BODIPY 493/503 (Invitrogen)/PBS solution at room temperature and washed 3 times with PBS. The cells were photographed with a fluorescence microscope at ×200 magnification and the fluorescence intensity was measured.

[4] = test system: Human normal skin fibroblast cell strain HDFs; conditions: general medium added with 4 μM ALK5 inhibitor II for 3 or 7 days; FIG. 32
Procedure: Human normal skin fibroblast cell strain HDFs were cultured in 60 mm culture dish and cultured in general medium (−). HDFs were cultured in the general medium added with 4 μM ALK5 inhibitor II for 3 or 7 days. Total RNA was recovered from these cells by ISOGEN II. The mRNA expression pattern of each cell was analyzed genome-wide by using a DNA chip (Affymetrix).

[5] = test system: human dermal fibroblasts; HDFs; conditions: day 14, FIG. 41
Procedure: The adipocyte induction medium is DMEM added with 1 nM T3, 1 μM Rosiglitazone, 0.5 mM 3-isobutyl-1-methylxanthine (IBMX), 0.5 μM dexamethasone, 1 μg/mL Insulin and 10% FBS.
Once every 2 days, the culture medium was exchanged with a fresh one.

[6] = test system: Human Epidermal Keratinocyte; NHEK (AD); conditions: K-osteoblast induction medium, 4 μM until Day 14; day 28; FIG. 48
[7] = test system: human dermal fibroblasts; HDFs; assay: Real-time PCR of AdipoQ, FABP4, PPAR-γ in WA medium, Example 47; assay type: cell-based; conditions: day 12
Procedure: On day 12, RNA was recovered from the cells. Real-time PCR was performed using TaqMan probes and Primers respectively specific to AdipoQ, FABP4 (mature adipocyte marker), and PPAR-γ (preadipocyte marker) gene, and mRNA was quantified.

[8] = test system: human dermal fibroblasts; HDFs; assay: Bodipy staining quantification in WA medium, four inhibitors, Example 49; assay type: cell-based; conditions: 1 μM Rosiglitazone or 16 μM ALK5 inhibitor II, day 12, FIG. 53
[9] = test system: human dermal fibroblasts; HDFs; assay: Real-time PCR of AdipoQ, FABP4, PPAR-γ, four inhibitors with Rosiglitazone, Example 50; assay type: cell-based; conditions: WA medium added with 1 μM Rosiglitazone and 16 μM compound; day 12; FIG. 54
Excerpt: On day 12, RNA was recovered from the cells and, in the same manner as in Example 47, mRNA of AdipoQ, FABP4 (mature adipocyte marker), and PPAR-γ (preadipocyte marker) was quantified.

[10] = test system: human dermal fibroblasts; HDFs; conditions: skeleton muscle cell growth medium added with 2 μM ALK5 inhibitor II and 2 μM D4476; day 28; FIG. 10
[11] = test system: human dermal fibroblasts; HDFs; conditions: 4 μM in calcification induction medium; day 13; FIG. 21
[12] = test system: human dermal fibroblasts; HDFs; conditions: 4 μM in MDI medium; day 14; FIG. 23
[13] = test system: human dermal fibroblasts; HDFs; conditions: 4 μM in cartilage induction medium; day 21; FIG. 25
[14] = test system: human dermal fibroblasts; HDFs; conditions: 4 μM in cartilage induction medium; day 21; FIG. 26
Human fibroblast aHDF45 = conditions: SC medium added with 4 μM; days 8 and 14; FIG. 55
[15] = WA medium, 16 μM ALK5 i II and 1 μM Rosiglitazone, FIG. 51

Cc1cccc(-c2n[nH]cc2-c2ccc3ncccc3n2)n1 [ALK5 inhibitor II, 2-(3-(6-Methylpyridin-2-yl)-1H-pyrazol-4-yl)-1,5-naphthyridine]
conversion of human fibroblast to osteoblast, immunostaining of Runx2 ([1]; day 19, FIG. 6): converted human fibroblast to osteoblast expressing Runx2 | conversion of human fibroblast to osteoblast, immunostaining of Osteocalcin ([1]; day 24, FIG. 4): converted human fibroblast to osteoblast producing osteocalcin | conversion of fibroblast to chondrocyte, Sox9 and Aggrican mRNA [2]: can convert human normal skin-derived fibroblast to chondrocyte expressing Sox9 and Aggrican gene | conversion of fibroblast to brown adipocytes, BODIPY staining and fluorescence intensity [3]: converted fibroblast to brown adipocytes having lipid droplets stained with BODIPY | conversion of fibroblasts to mesenchymal stem cells, expression level of MSC marker genes (DNA chip) [4]: converted fibroblasts to mesenchymal stem cells (MSCs) | conversion of fibroblast to brown adipocyte, UCP1 mRNA, exposure 0-8 days ([5]; 4 μM for 0-8 days, thereafter medium free of ALK5 inhibitor II): can be more strongly induced | conversion of fibroblast to brown adipocyte, UCP1 mRNA ([5]; 4 μM in adipocyte induction medium): converted fibroblast to brown adipocyte strongly expressing UCP1 gene | conversion of epidermal keratinocyte to osteoblast, Runx2 mRNA [6]: converted normal human epidermal keratinocyte to osteoblast expressing Runx2 gene | conversion of human fibroblast to white adipocyte (mRNA markers) ([7]; WA medium added with ALK5 inhibitor II): converted human fibroblast to white adipocyte | AdipoQ and FABP4 mRNA expression, co-addition of ALK5 i II and Rosiglitazone [7, 15]: strongly induced to express | PPAR-γ mRNA expression, co-addition of ALK5 i II and Rosiglitazone [7, 15]: strongly induced to express | AdipoQ and FABP4 mRNA expression, ALK5 i II alone ([7]; WA medium, 16 μM alone, FIG. 51): mildly induced to express | conversion of fibroblast to white adipocyte (mRNA markers), co-presence of Rosiglitazone ([7]; WA medium, ALK5 inhibitor II with Rosiglitazone): more strongly induced conversion of fibroblast to white adipocyte | PPAR-γ mRNA expression, single addition ([7]; WA medium, ALK5 i II 16 μM or Rosiglitazone 1 μM, FIG. 51): moderately induced to express | fat accumulation (BODIPY positive cells, area, intensity), single addition [8]: showed accumulation of a small amount of fat | mRNA expression of AdipoQ, FABP4 and PPAR-γ [9]: most strongly expressed all of these three genes | conversion of fibroblast to myoblast, MyoD1 and Myogenin mRNA [10]: can convert human normal skin-derived fibroblast to myoblast expressing Myogenin and MyoD1 gene | conversion of fibroblast to osteoblast, ALP staining [11]: converted human normal skin-derived fibroblast to osteoblast having high ALP activity | conversion of fibroblast to white adipocyte, Oil Red O staining [12]: converted human skin-derived fibroblast to white adipocyte that accumulates a large amount of lipid droplets | conversion of fibroblast to chondrocyte, Alcian blue staining [13]: converted human skin-derived fibroblast to chondrocyte that produces a large amount of cartilage matrix | conversion of fibroblast to chondrocyte, Aggrecan and type II collagen mRNA [14]: converted human skin-derived fibroblast to chondrocyte that expresses Aggrecan gene and type II collagen gene | conversion of human fibroblast to Schwann cell, S100β and EGR2 mRNA (Human fibroblast aHDF45): converted human fibroblast to Schwann cell co-expressing S100β and EGR2
